Hit rate of the full screen: of about 2,700 compounds, about 160 (5.9%) showed an effect of 50% or more. This is one part of the list.
Target: Nonstructural protein 3 (Zika virus) (UniProt A0A024AXB9)
[1] = PRVABC59, Concentration 15.0 uM, Number of replicates 1.0
[2] = PRVABC59, Concentration 10.0 uM, Number of replicates 1.0
[3] = PRVABC59, Concentration 50.0 uM, Number of replicates 1.0

Chain of UniProt A0A024AXB9 (A0A024AXB9 as listed by the source): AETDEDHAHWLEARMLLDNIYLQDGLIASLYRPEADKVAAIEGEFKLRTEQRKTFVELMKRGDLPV

Cc1ccc(C)n1CCN1CCN(C(=O)c2cc(Cl)ccc2NS(=O)(=O)c2ccc(Oc3ccccc3Cl)cc2)CC1
inhibition [1]: 16.3%

Cc1cnccc1NC(=O)c1ccccc1-c1nc(C(C)C)no1
inhibition (PRVABC59, Concentration 49.5 uM, Number of replicates 2.0, Standard deviation 0.2610834999883118 %): -0.098%
inhibition (PRVABC59, Concentration 99.01 uM, Number of replicates 2.0, Standard deviation 1.3020487023400833 %): -0.148%
inhibition (PRVABC59, Concentration 198.0 uM, Number of replicates 2.0, Standard deviation 1.8545350914642316 %): 0.672%

CCN(Cc1ccc(F)cc1)C(=O)C1CCN(c2ccc(C=O)cc2)CC1
inhibition [2]: 24%

CCN(C(=O)c1cc(Cl)ccc1NS(=O)(=O)c1ccc(Oc2ccccc2Cl)cc1)[C@H]1CCOC(C)(C)C1
inhibition [1]: 16.6%

CCC(=O)Nc1cncc(C(=O)Nc2ccncc2C)c1
inhibition (PRVABC59, Concentration 49.5 uM, Number of replicates 2.0, Standard deviation 0.43924745880368476 %): -2.29%
inhibition (PRVABC59, Concentration 99.01 uM, Number of replicates 2.0, Standard deviation 0.3166668164880395 %): -0.368%
inhibition (PRVABC59, Concentration 198.0 uM, Number of replicates 2.0, Standard deviation 1.30548455557754 %): 2.6%

CN(Cc1cccc2ccccc12)C(=O)c1cc(Cl)ccc1NS(=O)(=O)c1ccc(Oc2ccccc2Cl)cc1
inhibition [1]: 19.1%

N#Cc1cc(F)c(NC(=O)C2CCN(c3ccc(C=O)cc3)CC2)cc1F
inhibition [3]: 24.4%

COc1cccc(F)c1CNC(=O)C1CCN(c2ccc(C=O)cc2)CC1
inhibition [2]: 17.2%

O=C(Nc1cnc(Cl)c(Br)c1)c1cc(Cl)ccc1NS(=O)(=O)c1ccc(Oc2ccccc2Cl)cc1
inhibition [1]: 23%

Cc1cc(CO)c2cccc(Cc3cccc(C(=O)NCc4c(C)noc4C)c3)c2n1
inhibition (PRVABC59, Concentration 49.95 uM, Number of replicates 2.0, Standard deviation 0.6344586798768046 %): -2.24%
inhibition (PRVABC59, Concentration 99.9 uM, Number of replicates 2.0, Standard deviation 0.2674164432987103 %): 1.65%

CC(=O)N[C@@H](CCCN)C(=O)Nc1cccc2c(CO)cc(C)nc12
inhibition (PRVABC59, Concentration 49.95 uM, Number of replicates 2.0, Standard deviation 2.340889239911572 %): 9.01%
inhibition (PRVABC59, Concentration 99.9 uM, Number of replicates 2.0, Standard deviation 2.049858170273299 %): 41.2%

CCCC[C@H](NC(C)=O)C(=O)N[C@H](C(=O)Nc1cccc(C(N)=O)c1)c1ccc(OCc2ccccc2)cc1
inhibition (PRVABC59, Concentration 49.5 uM, Number of replicates 2.0, Standard deviation 1.5133642763760644 %): 0.392%
inhibition (PRVABC59, Concentration 99.01 uM, Number of replicates 2.0, Standard deviation 2.3397962878359877 %): 3.8%
inhibition (PRVABC59, Concentration 198.0 uM, Number of replicates 2.0, Standard deviation 2.8724328178638086 %): 7.97%

CS(=O)(=O)N1CCC(NC(=O)c2cc(Cl)ccc2NS(=O)(=O)c2ccc(Oc3ccccc3Cl)cc2)CC1
inhibition [1]: 4.19%

O=C(Nc1ccn([C@H]2C[C@H](O)[C@@H](CO)O2)c(=O)n1)c1cc(Cl)ccc1NS(=O)(=O)c1ccc(Oc2ccccc2Cl)cc1
inhibition [1]: 24.9%

Cc1cnccc1NC(=O)c1cc(-n2ccnc2)ccn1
inhibition (PRVABC59, Concentration 49.5 uM, Number of replicates 2.0, Standard deviation 2.257669729081069 %): 1.73%
inhibition (PRVABC59, Concentration 99.01 uM, Number of replicates 2.0, Standard deviation 0.9258765732907107 %): 4.55%
inhibition (PRVABC59, Concentration 198.0 uM, Number of replicates 2.0, Standard deviation 0.8678885788859061 %): 7.6%

COC(=O)c1csc(Cn2cc(C3CCNCC3)c(C)n2)n1
inhibition (PRVABC59, Concentration 49.5 uM, Number of replicates 2.0, Standard deviation 2.2121683444085645 %): -1.63%
inhibition (PRVABC59, Concentration 99.01 uM, Number of replicates 2.0, Standard deviation 1.3442857872536393 %): -0.419%
inhibition (PRVABC59, Concentration 198.0 uM, Number of replicates 2.0, Standard deviation 0.5654699997624443 %): 0.211%

O=Cc1ccc(N2CCC(C(=O)NCCCSc3ccccc3)CC2)cc1
inhibition [3]: 13.1%

O=Cc1ccc(N2CCC(C(=O)Nc3cc(Cl)cc(Cl)c3O)CC2)cc1
inhibition [3]: 92.4%

Cc1nn(Cc2nnc(-c3ccccc3)o2)cc1C1CCNCC1
inhibition (PRVABC59, Concentration 99.01 uM, Number of replicates 2.0, Standard deviation 1.440037610805296 %): -4.21%
inhibition (PRVABC59, Concentration 198.0 uM, Number of replicates 2.0, Standard deviation 2.052778441112922 %): -3.03%

NC(=O)c1cccc(NC(=O)[C@@H](NC(=O)OCc2ccccc2)c2ccc(OCc3ccccc3)cc2)c1
inhibition (PRVABC59, Concentration 49.5 uM, Number of replicates 2.0, Standard deviation 2.723334632333852 %): 2.73%
inhibition (PRVABC59, Concentration 99.01 uM, Number of replicates 2.0, Standard deviation 2.0062374464699793 %): 1.09%
inhibition (PRVABC59, Concentration 198.0 uM, Number of replicates 2.0, Standard deviation 2.561936647709264 %): -1.81%

Cc1cc(CO)c2cccc(Cc3ccccc3C(=O)N3CC4(CCCOC4)C3)c2n1
inhibition (PRVABC59, Concentration 49.95 uM, Number of replicates 2.0, Standard deviation 0.11535626154910505 %): -6.69%

CNC(=O)[C@H]1CCCN1S(=O)(=O)c1ccc(Oc2ccccc2Cl)cc1
inhibition (PRVABC59, Concentration 49.5 uM, Number of replicates 2.0, Standard deviation 3.1007059656639053 %): -3.34%
inhibition (PRVABC59, Concentration 99.01 uM, Number of replicates 2.0, Standard deviation 2.6505010954273733 %): -1.74%
inhibition (PRVABC59, Concentration 198.0 uM, Number of replicates 2.0, Standard deviation 1.9572281637908444 %): 2.36%

O=C(Nc1c(Cl)cncc1Cl)c1cc(Cl)ccc1NS(=O)(=O)c1ccc(Oc2ccccc2Cl)cc1
inhibition [1]: 22%

Cc1nc2ccccc2n1C1CCN(C(=O)c2ccc3c(c2)B(O)OC3)CC1
inhibition (PRVABC59, Concentration 49.5 uM, Number of replicates 2.0, Standard deviation 1.393997531456905 %): -0.146%
inhibition (PRVABC59, Concentration 99.01 uM, Number of replicates 2.0, Standard deviation 2.2888071148012052 %): 0.882%
inhibition (PRVABC59, Concentration 198.0 uM, Number of replicates 2.0, Standard deviation 2.2805219716146308 %): 4.41%

O=C(c1cc(Cl)ccc1NS(=O)(=O)c1ccc(Oc2ccccc2Cl)cc1)N1CCN(CC(F)(F)F)CC1
inhibition [1]: 4.66%

c1ccc(CN2CC[C@H](c3c[nH]c4ccccc34)C2)nc1
inhibition (PRVABC59, Concentration 49.5 uM, Number of replicates 2.0, Standard deviation 0.34862524389059196 %): 3.08%
inhibition (PRVABC59, Concentration 99.01 uM, Number of replicates 2.0, Standard deviation 1.827718653336993 %): 6.21%
inhibition (PRVABC59, Concentration 198.0 uM, Number of replicates 2.0, Standard deviation 3.724650524123788 %): 13.2%

COc1ccc(-c2ccccc2C(=O)Nc2cnn(C)c2)cc1F
inhibition (PRVABC59, Concentration 49.5 uM, Number of replicates 2.0, Standard deviation 0.9645356857936312 %): -7.9%
inhibition (PRVABC59, Concentration 99.01 uM, Number of replicates 2.0, Standard deviation 1.6719900941866965 %): -6.85%
inhibition (PRVABC59, Concentration 198.0 uM, Number of replicates 2.0, Standard deviation 2.864611711479339 %): -3.37%

O=C(NCCO)C1CCN(C(=O)c2cc(Cl)ccc2NS(=O)(=O)c2ccc(Oc3ccccc3Cl)cc2)CC1
inhibition [1]: -1.93%

O=C(Nc1cccc(Br)n1)c1cc(Cl)ccc1NS(=O)(=O)c1ccc(Oc2ccccc2Cl)cc1
inhibition [1]: 28.2%

O=Cc1ccc(N2CCC(C(=O)N3CCN(S(=O)(=O)N4CCOCC4)CC3)CC2)cc1
inhibition [3]: 23.9%

O=C(c1cc(Cl)ccc1NS(=O)(=O)c1ccc(Oc2ccccc2Cl)cc1)N(Cc1ccco1)Cc1cccs1
inhibition [1]: 13.2%

CCCOc1ccc(NC(=O)c2cc(Cl)ccc2NS(=O)(=O)c2ccc(Oc3ccccc3Cl)cc2)cc1
inhibition [1]: 43.9%

NC(=O)[C@H](Cc1ccc(O)cc1)NC(=O)c1cc(Cl)ccc1NS(=O)(=O)c1ccc(Oc2ccccc2Cl)cc1
inhibition [1]: 4.46%

O=C(NCC1CCC(C(F)(F)F)CC1)c1cc(Cl)ccc1NS(=O)(=O)c1ccc(Oc2ccccc2Cl)cc1 (stereo not given)
inhibition [1]: 31.2%

O=Cc1ccc(N2CCC(C(=O)N3CCC(c4noc5ccc(F)cc45)CC3)CC2)cc1
inhibition [3]: 7.26%

O=Cc1ccc(N2CCC(C(=O)N3CCC(c4nnc5n4CCCCC5)CC3)CC2)cc1
inhibition [3]: 20.7%

O=Cc1ccc(N2CCC(C(=O)N3CCN(C(=O)OCc4ccccc4)CC3)CC2)cc1
inhibition [3]: 22.1%

CCOc1ccc(CCNC(=O)C2CCN(c3ccc(C=O)cc3)CC2)cc1OC
inhibition [3]: 25.2%

CC(C)Cn1cccc(C(=O)Nc2ccncc2C2CC2)c1=O
inhibition (PRVABC59, Concentration 49.5 uM, Number of replicates 2.0, Standard deviation 1.782572076640321 %): 1.22%
inhibition (PRVABC59, Concentration 99.01 uM, Number of replicates 2.0, Standard deviation 2.7801764853402515 %): 0.021%

O=C(c1cc(Cl)ccc1NS(=O)(=O)c1ccc(Oc2ccccc2Cl)cc1)N1CCN(CCc2cccs2)CC1
inhibition [1]: 13.3%

Cn1cc(NC(=O)c2ccccc2C(F)(F)F)c(C=Cc2cc(F)cc(F)c2)n1
inhibition (PRVABC59, Concentration 49.5 uM, Number of replicates 2.0, Standard deviation 0.37053351292134273 %): -8.84%

COCCOCCOCCNC(=O)C1CCN(c2ccc(C=O)cc2)CC1
inhibition [3]: 19.5%

CNC(=O)c1cccc(CCC(=O)Nc2cc(Cl)cc(C(=O)NC(C)(C)CO)c2)c1
inhibition (PRVABC59, Concentration 49.5 uM, Number of replicates 2.0, Standard deviation 2.0103235412862617 %): -0.511%
inhibition (PRVABC59, Concentration 99.01 uM, Number of replicates 2.0, Standard deviation 1.7876352618456317 %): 1.07%
inhibition (PRVABC59, Concentration 198.0 uM, Number of replicates 2.0, Standard deviation 1.8938720095849042 %): 2.74%

Cc1nnc(Cn2cc(C3CCNCC3)c(C)n2)s1
inhibition (PRVABC59, Concentration 49.5 uM, Number of replicates 2.0, Standard deviation 1.0377307689033486 %): -2.31%
inhibition (PRVABC59, Concentration 99.01 uM, Number of replicates 2.0, Standard deviation 0.8554546685193132 %): -2.22%
inhibition (PRVABC59, Concentration 198.0 uM, Number of replicates 2.0, Standard deviation 2.3426614305977584 %): -2.93%

Cc1cc(CO)c2cccc(Cc3ccccc3C(=O)Nc3nonc3C(N)=O)c2n1
inhibition (PRVABC59, Concentration 49.95 uM, Number of replicates 2.0, Standard deviation 0.12584307180819165 %): -4.45%
inhibition (PRVABC59, Concentration 99.9 uM, Number of replicates 2.0, Standard deviation 0.39850300453014226 %): -1.53%

O=C(N[C@H]1CCc2ccccc2NC1=O)c1cc(Cl)ccc1NS(=O)(=O)c1ccc(Oc2ccccc2Cl)cc1
inhibition [1]: 27.7%

O=Cc1ccc(N2CCC(C(=O)NCc3ccc([N+](=O)[O-])cc3)CC2)cc1
inhibition [2]: 12.3%

C[C@H]1c2cc(O)c(O)cc2CCN1C(=O)c1cc(Cl)ccc1NS(=O)(=O)c1ccc(Oc2ccccc2Cl)cc1
inhibition [1]: 32.3%

Cc1nc([C@H]2CCCNC2)[nH]c1C(=O)N1CCO[C@H](c2ccccc2)C1
inhibition (PRVABC59, Concentration 49.5 uM, Number of replicates 2.0, Standard deviation 0.6026884486895654 %): -0.605%
inhibition (PRVABC59, Concentration 99.01 uM, Number of replicates 2.0, Standard deviation 0.7048390067821461 %): 0.943%
inhibition (PRVABC59, Concentration 198.0 uM, Number of replicates 2.0, Standard deviation 0.8764519755663496 %): 3.13%

O=C(c1cc(Cl)ccc1NS(=O)(=O)c1ccc(Oc2ccccc2Cl)cc1)N1CCN(Cc2c(F)cccc2Cl)CC1
inhibition [1]: 14.4%

O=Cc1ccc(N2CCC(C(=O)N3CCC(Oc4ncccn4)CC3)CC2)cc1
inhibition [3]: 25.2%

CCn1ccnc(N[C@@H](Cc2c[nH]c3ccccc23)C(=O)OC)c1=O
inhibition (PRVABC59, Concentration 49.5 uM, Number of replicates 2.0, Standard deviation 1.8174652944718082 %): 0.373%
inhibition (PRVABC59, Concentration 99.01 uM, Number of replicates 2.0, Standard deviation 2.0661171600233468 %): 2.71%
inhibition (PRVABC59, Concentration 198.0 uM, Number of replicates 2.0, Standard deviation 1.958453456970753 %): 6.79%

From ChEMBL document CHEMBL5606458, “ASAP - ZIKV NS2B-NS3 protease fluorescence single point” (2024)
